# Reference: PubChem BioAssay AID1346428 (National Center for Advancing Translational Sciences (NCATS), 2018)
# Among all 48,000 compounds or so, about 1,200 (2.5%) were called active. Another 2% or so got no clear call; they are omitted.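 Rule for the calls: active = activation of at least 60% and not above a set upper limit (about 1 call in 100 departs from these limits); inconclusive = activation of 40% to 60%, or above that upper limit; inactive = activation under 40%.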 The list shows a part of the results.
# Molecular target: Probable G-protein coupled receptor 32 (Homo sapiens) (UniProt O75388)
# Test: qHTS for Agonists of Human Resolvin D1 Receptor DRV1; note: 0% is about no effect
# Conditions: CHO-K1 GPR32 beta-arrestin PathHunter luminescence, 90 min; at 76.9 µM; stronger effect = higher value; zero percent set by DMSO-only wells
# Outline: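 Cells are plated overnight, treated with compounds in DMSO for 90 minutes at 37 °C, and developed with PathHunter detection reagent for 1 hour before luminescence is read; signal reflects beta-arrestin binding to GPR32 in engineered CHO-K1 cells.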
# Chain of UniProt O75388 (O75388 whole entry, looked up): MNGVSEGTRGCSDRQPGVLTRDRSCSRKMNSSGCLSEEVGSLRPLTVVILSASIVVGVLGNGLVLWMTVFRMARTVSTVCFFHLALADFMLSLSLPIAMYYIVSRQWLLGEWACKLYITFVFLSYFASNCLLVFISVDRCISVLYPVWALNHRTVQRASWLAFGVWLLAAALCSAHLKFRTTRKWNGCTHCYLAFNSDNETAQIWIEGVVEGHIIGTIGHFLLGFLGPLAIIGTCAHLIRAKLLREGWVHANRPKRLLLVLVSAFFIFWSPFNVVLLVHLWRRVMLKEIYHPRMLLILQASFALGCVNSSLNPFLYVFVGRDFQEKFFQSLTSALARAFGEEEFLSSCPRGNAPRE
row,Structure (SMILES),activation
1,Nc1nnc(SCC(=O)Nc2ccccc2)s1,inactive: 11.2%
2,Cc1ccc(/C=C/C(=O)Nc2ccc(S(N)(=O)=O)cc2)o1,inactive: 12.3%
3,Cc1cc(C)c(NC(=O)CN2C(=O)c3cccnc3Oc3ccc(C)cc32)c(C)c1,inactive: -23.7%
4,CCN1CCN(C(=O)Cn2ncc3c4ccccc4n(Cc4ccccc4)c3c2=O)CC1,inactive: 20.7%
5,Cc1ccc(-c2cc(NC(=O)COc3ccc(Cl)c(C)c3)on2)cc1,inactive: 9.52%
6,Cc1nnc(SCC2=C(C(=O)O)N3C(=O)[C@@H](NC(=O)Cn4cnnn4)[C@H]3SC2)s1,inactive: 3.23%
7,Cc1cc(C)c(Cn2c3ccccc3c3cnn(CC(=O)NCc4ccccn4)c(=O)c32)c(C)c1,inactive: -28.4%
8,CCOC(=O)c1cccc(NC(=O)c2cn(-c3cccc(OC)c3)c(=O)c3ccccc23)c1,inactive: -0.825%
9,COc1ccccc1CCNC(=O)C(=O)NCC(c1cccs1)S(=O)(=O)c1ccccc1 (centres undefined),inactive: -2.83%
10,O=C(CCS(=O)(=O)c1ccc(Br)cc1)Nc1ccc(Cl)c(C(F)(F)F)c1,inactive: 7.14%
11,Cc1ccc(Sc2ccc(N3CCC(C(=O)Nc4ccc(C)c(F)c4)CC3)nn2)cc1,inactive: 25.7%
12,Cc1cccc(Cn2c(=O)n(Cc3ccccc3)c(=O)c3oc4ccccc4c32)c1,inactive: -8.56%
13,Cc1ccccc1NC(=O)C1CCN(C(=O)c2cnn(-c3ccccc3)c2-n2cccc2)CC1,inactive: -18.9%
14,Fc1cc(F)c2ncc3c(-c4ccccc4)nn(-c4cccc(Cl)c4)c3c2c1,inactive: 12.5%
15,CC(C)OCCCNC(=O)C(=O)Nc1ccc2nc3n(c(=O)c2c1)CCCCC3,inactive: 5.36%
16,COc1ccc(-c2cc(C(F)(F)F)nc(-n3nc(C(F)(F)F)cc3C)n2)cc1,inactive: -9.94%
17,Cc1cccc(-c2nc3nc(C)cc(NCc4ccccc4Cl)n3n2)c1,inactive: 5.65%
18,COc1cc(NC(=O)N(Cc2ccco2)C2CCN(C(C)=O)CC2)cc(OC)c1OC,inactive: -1.26%
19,CCc1ccc(-n2c(N3CCN(c4cccc(Cl)c4)CC3)nc3ccccc3c2=O)cc1,inactive: -13.6%
20,CC1CCN(c2oc(-c3ccc(COc4ccccc4)o3)nc2C#N)CC1,inactive: -0.809%
21,O=C(NCC(c1cccs1)S(=O)(=O)c1cccs1)c1ccc(Cl)cc1 (centres undefined),active: 99.8%
22,CSc1ccc(CCNC(=O)c2sc3ncccc3c2-n2cccc2)cc1,inactive: -15.4%
23,O=C(NCC(c1cccnc1)N1CCOCC1)C(=O)Nc1cccc(Cl)c1 (centres undefined),inactive: -0.261%
24,CCOc1ccc(NC(=O)CN2C(=O)CCSc3ccc(S(=O)(=O)N4CCCC4)cc32)cc1,inactive: -10.4%
25,Cc1ccc(C)c(N2CCN(C(=O)C(C)n3nc(C)c4sc5ccccc5c4c3=O)CC2)c1 (centres undefined),inactive: -28.7%
26,COc1cccc(-n2cc(C(=O)NCCc3cccc(C)c3)c3ccccc3c2=O)c1,inactive: -23.3%
27,COC(=O)c1ccc(NC(=O)N2CCc3c([nH]c4ccccc34)C2c2ccc(C)cc2)cc1 (centres undefined),inactive: -29%

row,Structure (SMILES),activation
1,O=C(O)c1ccc(-n2nc(-c3ccccc3O)nc2-c2ccccc2O)cc1,inactive: 31.6%
2,COc1ccccc1CNC(=O)C1CCN(c2nn3c(=O)cc(C)nc3s2)CC1,inactive: -3.49%
3,O=C(NCc1ccccc1Cl)C(=O)NCC(c1ccco1)S(=O)(=O)c1cccs1 (centres undefined),inactive: -15.6%
4,CCC1CCCCN1CCCNC(=O)c1ccc2c(c1)N(Cc1cccc(C)c1)C(=O)c1ccccc1S2(=O)=O (centres undefined),inactive: -9.69%
5,Cc1c2cnn(CC(=O)NCCc3ccccc3)c(=O)c2c(C)n1Cc1ccccc1Cl,inactive: -16.8%
6,COc1ccc(Cn2c(=O)c3oc4ccccc4c3n(CC(=O)Nc3cc(C)cc(C)c3)c2=O)cc1,inactive: -17.6%
7,CCC1CCCCN1CCCNC(=O)c1cc2c(Cl)nc3ccc(C)cc3c2s1 (centres undefined),inactive: -5.85%
8,CCc1ccc(NC(=O)CSc2nc(=O)n(Cc3cccnc3)c3c2CCC3)cc1,inactive: 30.8%
9,CC(=O)c1ccc(NC(=O)CN2C(=O)c3cccnc3Sc3ccccc32)cc1,inactive: 4.28%
10,CCOc1ccc(NC(=O)CSc2nc3nc(C)c(Cc4ccccc4)c(C)n3n2)cc1,inactive: -23.5%
11,COc1cc(C(=O)NCC(c2ccc(N(C)C)cc2)N2CCCC2)cc(OC)c1OC (centres undefined),inactive: -13.9%
12,COc1ccc(/C=C(\C#N)c2nc(-c3ccc(Cl)c(Cl)c3)cs2)cc1OC,inactive: -6.75%
13,CCc1ccccc1NC(=O)CSc1nc2c(oc3ccccc32)c(=O)n1-c1ccccc1,inactive: 18.2%
14,O=C(COc1ccccc1F)NC1CC(=O)N(c2ccc3c(c2)OCCO3)C1 (centres undefined),inactive: 2.39%
15,Cc1ccc(-c2nc3ccc(Br)cn3c2Nc2ccc3c(c2)OCO3)o1,inactive: -20.6%
16,COc1cccc(Nc2cc(-c3ccccc3)nc(C)n2)c1,inactive: -7.88%
17,Cc1ccc(C)c(N2CCN(C(=O)c3cc(S(=O)(=O)N4CCCC4)c[nH]3)CC2)c1,inactive: -16.9%
18,CCCOc1ccc(C(=O)Nc2ccc(NC(=O)c3cccc(Cl)c3)cc2)cc1,inactive: 8.97%
19,COc1ccc(C)c2sc(N(Cc3cccnc3)C(=O)COc3ccccc3)nc12,inactive: -37.2%
20,Cc1cccc(Nc2ncnc3c2cnn3C)c1C,inactive: -5.39%
21,CCc1ccc(S(=O)(=O)Nc2cc(-c3cn4ccccc4n3)ccc2C)cc1,inactive: 16.3%
22,COc1ccc(NC(=O)c2c(NCc3cccc(OC)c3)sc3c2CCC3)cc1,inactive: -9.83%
23,COc1cc(OC)cc(C(=O)NCc2ccc3c(c2)CCN3C(=O)c2ccccc2)c1,inactive: -21.6%
24,Cc1ccc(-n2ncc3c(N4CCN(C)CC4)ncnc32)cc1,inactive: 44.5%
25,Cc1ccc2c(c1)N(C(=O)N1CCC(C(=O)NC3CCCCCC3)CC1)CCO2,inactive: -10.6%
26,CN(C)c1ccc(-c2nc(-c3ccncc3)no2)cc1[N+](=O)[O-],inactive: 2.24%
27,COc1cc(C(=O)N2CCC(c3ccncc3)CC2)cc(OC)c1OC,inactive: 8.7%
